Several values for one entry are separate records, joined by “and”; a condition that tells them apart may be missing. Equal entries are not always repeated. The campaign covered roughly 94,000 compounds. About 6,200 (6.6%) were called active. Inconclusive means that the source gave no clear call. Such entries were picked first, then a sample of the others. The call rests on the fitted dose curve; in most records, active means well fitted inhibition curve with a large enough effect; inconclusive means small, poorly fitted or top-dose-only effect; inactive means flat fitted curve, though single readings scatter. A potency beside an inconclusive call is a rough fit, not a confirmed value.
Assay: Cytotoxic Profiling in HEK 293 Cell Line of Diverse Libraries Using Quantitative High-Throughput Screening; further: nearly all actives have a fitted effect of over 60% in size
Conditions: HEK 293 viability, ATP luminescence (CellTiter-Glo), 48-72 h; series mostly up to 115 µM
How it was run: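 Pintool-delivered compounds were incubated with HEK 293 cells (250 cells/well) at 37 degree Celsius for 48 or 72 hr. ATP-dependent luminescence (CellTiter-Glo) then reported remaining viable cells.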
Potency means the concentration at half of the fitted maximal effect; tags describe the fitted curve by direction and shape.

| Compound | Potency |
| --- | --- |
| O=C(NCCC1=CCCCC1)C1(CCO)CC12CCOCC2 (configuration not stated) | inactive |
| COc1ccccc1CN1CC(CNC(=O)Nc2ccccc2)C2(C1)CN(c1ccccc1)C2 (configuration not stated) | active: 79.4 µM |
| COc1ccc(Cl)cc1C(=O)N1CCC2(CC1)N=C(c1ccc(C)cc1)NO2 | inconclusive: 50.1 µM [inhibitor, partial curve, poor fit] |
| O=C(NCCc1ccccc1)N(C1CCOCC1)C1CCN(Cc2cccc(F)c2)CC1 | inconclusive: 79.4 µM [inhibitor, partial curve, poor fit] |
| Cn1cc(C2CC2)c2nc(COc3ccccc3)cn2c1=O | inconclusive: 178 µM [inhibitor, partial curve, poor fit] |
| Cc1noc(C)c1-c1cc2cc(CN(C)C)oc2c(NCc2cccnc2)n1 | inconclusive: 56.2 µM [inhibitor, partial curve, poor fit] |
| O=C(NCc1cccs1)C1CCN(Cc2ccccc2-c2cccnc2)CC1 | inconclusive: 50.1 µM [inhibitor, partial curve, poor fit] |
| COc1ncccc1-c1cnc2[nH]cc(CC(=O)NC3CC3)c2c1 | inconclusive: 39.8 µM [inhibitor, full curve] |
| Cc1cc(C2CCCN2C(=O)c2ccc(-c3ccccc3Cl)o2)no1 (configuration not stated) | active: 44.7 µM |
| COCCN1CC(CO)C2(CCN(C(=O)Cc3cccc(F)c3)CC2)C1 (configuration not stated) | inconclusive: 89.1 µM [inhibitor, single point] |
| CN1C(=O)Cc2cc(C(=O)NC3CCCCC3)ccc21 | inactive |
| COc1ccc2[nH]c3c(c2c1)CCNC31CCN(C(=O)Cc2cccc(F)c2)CC1 | inconclusive: 10 µM [inhibitor, full curve, poor fit] |
| CCN1c2cc(C(=O)NCc3ccccc3OC)ccc2C(=O)N2CCCCCC21 (configuration not stated) | inconclusive: 44.7 µM [inhibitor, partial curve, poor fit] |
| CSc1ccccc1OCc1cc(C(=O)NCCN2CCCCC2CO)no1 (configuration not stated) | inconclusive: 25.1 µM [inhibitor, full curve, poor fit] |
| COc1ccccc1CCC(=O)N1CCC2(CC1)N=C(c1ccc(C)cc1)NO2 | inactive |
| Cn1cc(-c2ccc(CO)cc2)c2nc(COc3ccccc3)cn2c1=O | inconclusive: 126 µM [inhibitor, single point] |
| O=C(Cc1cccc(F)c1)N1CCC2(CCC(=O)N(CC3CC3)CC2)CC1 | inconclusive: 50.1 µM [inhibitor, partial curve, poor fit] |
| CN1CCN(Cc2ccc(Nc3ncc(-c4cccnc4)c4c3OCC4)cc2)CC1 | inconclusive: 70.8 µM [inhibitor, partial curve, poor fit] |
| Cc1ccsc1-c1[nH]nc2ncc(-c3ccccc3F)nc12 | active: 70.8 µM |
| O=C(NC1CCN(Cc2cccc(-c3cccs3)c2)CC1)c1ccccc1F | inconclusive: 89.1 µM [inhibitor, single point] and inconclusive: 7.08 µM [inhibitor, full curve, poor fit] |
| COCCNC(=O)C1CCCN(Cc2cccc(-c3ccc(F)cc3F)c2)C1 (configuration not stated) | inconclusive: 79.4 µM [inhibitor, partial curve] |

| Compound | Potency |
| --- | --- |
| O=C(c1cc(F)ccc1F)N1CCN(c2cc(-c3ccc(Cl)cc3)[nH]n2)CC1 | active: 35.5 µM |
| COc1ccccc1Nc1ccnc(N2CCC(C(=O)NCCCc3ccccc3)CC2)n1 | inconclusive: 20 µM [inhibitor, full curve, poor fit] |
| CCN(CC)C(CNc1ncncn1)c1ccco1 (configuration not stated) | inactive |
| Cc1ncoc1C(=O)N1CCCN(S(C)(=O)=O)C(c2ccccc2)CC(=O)NCC1 (configuration not stated) | inactive |
| CCCN1CCCC12Cc1ccccc1CN(C(=O)c1c(C)noc1C)C2 (configuration not stated) | inactive |
| Cc1ccc(CNC(=O)N2CC(c3nc(CCOCc4ccccc4)no3)C2)cc1 | inactive |
| COc1ccc(C(=O)Nc2ccc([C@@H](O)[C@H]3COCC(=O)N3Cc3ccc(F)cc3)cc2)cc1OC | inconclusive: 79.4 µM [inhibitor, single point] |
| O=C(NCC1Cn2cccc2C(=O)N1Cc1ccccc1)c1ccc2ccccc2n1 (configuration not stated) | inconclusive: 44.7 µM [inhibitor, partial curve, poor fit] |
| CCC(=O)N1CCC(C(NC(=O)c2ccccc2)C(=O)NCc2ccccc2)CC1 (configuration not stated) | inconclusive: 39.8 µM [inhibitor, single point] |
| O=C1CCC2(CNC(=O)c3ccco3)CCCC=C2N1 (configuration not stated) | inactive |
| Cc1ccc(NC(=O)Nc2ccccc2)c(=O)n1CC(=O)NCCN1CCCCC1 | inactive |
| CC(C)Cc1cc(C(=O)NCc2nc(Cc3cccs3)no2)on1 | inactive |
| CC(C)CCN1CCc2c(n(CCOc3ccccc3)n(-c3ccccc3)c2=O)C1 | inconclusive: 100 µM [inhibitor, partial curve] |
| CC(C)CCNC(=O)c1ccc2c(c1)N(S(=O)(=O)c1ccccc1)CC2 | inconclusive: 50.1 µM [inhibitor, partial curve, poor fit] |
| N#Cc1ccc(C(=O)NC2CCCN(c3cc(-c4ccc(Cl)cc4)[nH]n3)C2)cc1 (configuration not stated) | inconclusive: 31.6 µM [inhibitor, full curve] |
| c1ccc(Cn2cc(CNc3ncncn3)cn2)cc1 | inactive |
| Cc1cccc(C)c1-c1nc(C(=O)NCc2ccsc2)n2ccccc12 | inconclusive: 79.4 µM [inhibitor, partial curve] |
| O=c1c2c(CO)c(-c3ccccc3)nn2ccn1Cc1cc(=O)n2ccccc2n1 | inconclusive: 89.1 µM [inhibitor, single point] |
| COc1ccc(Cc2nc3nccc(-c4ccc(F)cc4OC)n3n2)cc1 | inconclusive: 56.2 µM [inhibitor, partial curve, poor fit] |
| FC(F)(F)Oc1ccc(-c2cnc([C@@H]3COCCN3Cc3ncc[nH]3)[nH]2)cc1 | inconclusive: 100 µM [inhibitor, partial curve] |
| COc1ccc(F)cc1-c1cccc(CN)c1 | inconclusive: 126 µM [inhibitor, single point] |
